In all, about 110,000 compounds went through this assay and about 40 (0.04%) were called active. This list was built around the results that the source calls inconclusive (neither active nor inactive); the mix of calls is not that of the screen. The call rests on the fitted dose curve; in most records, active means well fitted curve in the direction sought with a large enough effect in the signal ratio (not every such curve was filed as active); inconclusive means small, poorly fitted or top-dose-only effect, or a change in a side signal; inactive means flat fitted curve, though single readings scatter; the % refers to the signal ratio. Where the call is inconclusive, the potency comes from a doubtful curve fit.
assay: IkB Signaling; conditions: ABC-DLBCL IkBa-CBG/CBR dual luciferase ratio (green luciferase fused to IkBa over red control in OCI-Ly3 lymphoma cells), 4 h; IkBa stabilization activation: at 57.1 µM (top of the series), scaled: untreated 0%, proteasome inhibitor 100% unless noted;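 on IkBa stabilization activation: 0% = basal untreated cells and 100% = reference inhibitor full response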
Summary of the method: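 In this assay, an IκBα–CBG68 fusion accumulates when IKK-driven degradation is blocked; native CBR normalizes for cell number. OCI-Ly3 cells were treated 4 h with compound and doxycycline, then green and red light read after Chroma-Glo addition.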
Potency means the concentration at half of the fitted maximal effect.

Row | Structure (SMILES) | IkBa stabilization activation | Potency
1 | Cn1ccnc1 | inactive: 6.03% | –
2 | Cc1ccc(NC(=O)Cc2nc(CSc3nnc(-c4ccc5c(c4)OCO5)o3)cs2)cc1 | inconclusive: 3.67% [signal inhibitor] | –
3 | COc1ccc(-n2c(O)c(C=NC3CC3)c(=O)[nH]c2=O)cc1 | – | inconclusive: 15.8 µM [signal inhibitor, partial curve]
4 | c1ccc(-c2noc(-c3ccncc3)n2)nc1 | inactive: 0.679% | –
5 | Cn1ccnc1SCC(=O)Nc1cc(Cl)ccc1Cl | inactive: -1.7% | –
6 | CCCCNC(=O)CCc1c(C)nc2c(c(C)nn2-c2ccccc2)c1C | inconclusive: 2.36% [signal inhibitor] | –
7 | CC1(C)COCN1S(=O)(=O)c1ccc(C(=O)Nc2nnc(-c3ccc(Cl)s3)o2)cc1 | inactive: 0.817% | –
8 | Cc1ccc(NC(=O)C2CCCN2S(=O)(=O)c2cccc3cccnc23)cc1C (stereo not given) | inactive: -1.12% | –
9 | Cc1cc(C(=O)CSc2nnc(Cc3ccccc3)o2)c(C)n1Cc1ccc2c(c1)OCO2 | inconclusive: 2.28% [signal inhibitor] | –
10 | O=C(Nc1ccccc1)C1=C(N2CCOCC2)/C(=C/c2cccnc2)CC1 | inconclusive: 2.43% [signal inhibitor] | –
11 | O=C(O)CC12C[C@H]3C[C@@H](CC(O)(C3)C1)C2 | inactive: -1.36% [at 11.4 µM, scaled: untreated 0%, proteasome inhibitor 100%] | –
12 | COc1cccc(OCc2nc3ccccc3n2CCOc2cccc(C)c2)c1 | inconclusive: 0.845% [signal inhibitor] | –
13 | Cc1cccc(CS(=O)(=O)c2ncc(Cl)c(C(=O)NCc3ccccc3)n2)c1 | – | inconclusive: 6.31 µM [signal inhibitor, single point]
14 | CCC(C(=O)Nc1ccc(C(C)=O)cc1)n1c(C)c2cnn(-c3ccccc3)c(=O)c2c1C (stereo not given) | inactive: -1.29% | –
15 | Cn1c(=O)c2c(nc(SCC(=O)Nc3ccc(F)cc3)n2Cc2ccccc2)n(C)c1=O | inconclusive: 6.72% [signal inhibitor] | –
16 | COc1ccc(NS(=O)(=O)c2ccc3[nH]c4c(c3c2)CCCCCC4)cc1 | inconclusive: 16.8% [signal inhibitor] | –
17 | Cc1ccc(NC(=O)Cn2c(=O)ccc3cc(S(=O)(=O)N4CCC(C)CC4)ccc32)cc1Cl | inactive: -1.8% | –
18 | CCCCn1c(CN(C)Cc2ccccc2)nc2c1c(=O)n(C)c(=O)n2C | inconclusive: -0.64% [signal inhibitor] | –
19 | Cc1ccc(C)c(NC(=O)c2cc(=O)c3cc(C)cc(C)c3o2)c1 | inactive: 0.133% | –
20 | Cc1ccc(-c2csc(N(CC3CCCO3)C(=O)c3ccco3)n2)cc1 (stereo not given) | inconclusive: 2.34% [signal inhibitor] | –
21 | O=Nc1ccc(NO)cc1 | inactive: 0.0319% | –
22 | CC(C)C(=O)OCc1cc(=O)n2nc(C3CCCCC3)sc2n1 | – | inconclusive: 25.1 µM [signal inhibitor, single point]
23 | COCCNc1ncnc2c1c(-c1ccccc1)cn2-c1cccc(Cl)c1 | inconclusive: -3.23% [signal inhibitor] | –
24 | COc1ccc(CNC(=O)C2CCN(S(=O)(=O)c3cccc4nonc34)CC2)cc1OC | inactive: 1.3% | –

Row | Structure (SMILES) | IkBa stabilization activation | Potency
25 | Cc1cnc(C)c(N2CCC(C(=O)NCc3ccco3)CC2)n1 | inconclusive: 0.64% [signal activator] | –
26 | CCOC(=O)c1cc(C#N)c(SCc2ccc(C#N)cc2)nc1C | inactive: -1.27% | –
27 | CCOC(=O)c1c(NC(=O)c2cc(-c3ccc(OC)cc3)on2)sc(C)c1C | inactive: 0.456% | –
28 | Cn1c(CCNC(=O)c2ccco2)nc2cc(NC(=O)COc3ccc(Cl)cc3)ccc21 | inconclusive: -2.09% [signal inhibitor] | –
29 | Cc1ccc(Nc2cccccc2=O)cc1 | inactive: -2.15% | –
30 | O=C(Cn1nc(C(F)(F)F)c2c1CCCC2)NC1CCCC1 | inconclusive: 3.67% [signal inhibitor] | –
31 | COc1cc(NC(=O)Cn2cc(S(=O)(=O)c3ccccc3)c(=O)c3ccccc32)cc(OC)c1 | inconclusive: -0.763% [signal inhibitor] | –
32 | COc1cccc(-c2ccc3c(N)c(C(=O)Nc4ccc(C)c(F)c4)sc3n2)c1 | inconclusive: 15.3% [signal inhibitor] | –
33 | CCOc1cc(C2c3c(-c4ccccc4O)n[nH]c3C(=O)N2CCc2ccccc2)ccc1O (stereo not given) | inconclusive: -1.12% [signal inhibitor] | –
34 | CCCCCC(=O)Nc1cccc(-c2nc3ncccc3o2)c1 | inconclusive: 0.753% [signal inhibitor] | –
35 | CNC(=O)COc1ccc(Nc2nnc(-c3ccc(C)c(S(=O)(=O)NC(C)(C)C)c3)c3ccccc23)cc1 | – | inconclusive: 39.8 µM [signal inhibitor, single point]
36 | COc1ccc(-c2onc(C)c2C)cc1S(=O)(=O)NC1CCC(C)CC1 (stereo not given) | inconclusive: 13.6% [signal inhibitor] | –
37 | Cc1ccc(OCC(=O)Nc2ccc(C(=O)OCc3cc(=O)n4c(C)csc4n3)cc2)cc1 | inconclusive: 2.6% [signal inhibitor] | –
38 | O=C(Nc1ccc(F)cc1F)c1ccc(-n2cnnc2)cc1 | inconclusive: 5.28% [signal inhibitor] | –
39 | O=C(NCC12CC3CC(CC(C3)C1)C2)c1cc2nc(-c3ccc(F)cc3)cc(C(F)(F)F)n2n1 | inconclusive: 0.619% [signal inhibitor] | –
40 | Cc1cc(-n2c(C)nc3ccccc3c2=O)ccc1NC(=O)c1cccc([N+](=O)[O-])c1 | inconclusive: -5.26% [signal inhibitor] | –
41 | Cc1cccc(NC(=O)CSc2cc(C)c3ccccc3n2)c1 | inconclusive: 1.7% [signal inhibitor] | –
42 | COc1ccc(N2CCN(C(=O)Nc3cccc(C(F)(F)F)c3)CC2)cc1 | inconclusive: 1.89% [signal inhibitor] | –
43 | Cc1ccc(-n2c(=O)c3oc4ccccc4c3n(CC(=O)Nc3ccccc3)c2=O)cc1C | inconclusive: 2.9% [signal inhibitor] | –
44 | COc1ccccc1NC(=O)CSc1nnc(-c2ccccn2)n1Cc1ccco1 | inactive: -4.01% | –
45 | COc1cccc(Nc2nc(-c3ccccc3)c3cc(C)ccc3n2)c1 | inconclusive: 4.37% [signal inhibitor] | –
46 | CCN(CCCNC(=O)c1cc2cc3ccc(OC)cc3nc2s1)c1ccccc1 | inactive: 1.03% | –
47 | Cc1ccc(NC(=O)C(Cc2ccccc2)NS(=O)(=O)c2cccc3nsnc23)c(C)c1 (stereo not given) | inconclusive: -0.0699% [signal inhibitor] | –
48 | O=C(CC1NC(=O)NC1=O)Nc1cccc2ccccc12 (stereo not given) | inactive: -3.31% | –

Row | Structure (SMILES) | IkBa stabilization activation | Potency
49 | COc1ccc(NC(=O)CSC2=Nc3ccccc3C3=NC(CC(=O)NCc4ccc(F)cc4)C(=O)N23)cc1 (stereo not given) | inconclusive: -2.01% [signal inhibitor] | –
50 | COc1cccc(NC(=O)/C(C#N)=C\c2cn(Cc3ccc(Cl)cc3)c3ccccc23)c1 | inconclusive: 5.99% [signal inhibitor] | –
51 | COc1ccc(CNC(=O)Cn2c(=O)oc3cc(S(=O)(=O)N4CCCC4)ccc32)cc1 | inconclusive: 0.887% [signal inhibitor] | –
52 | CC(=O)c1cc(C)oc1C | inactive: 0.844% | –
53 | O=C(O)c1cc(Cl)c2ccccc2c1O | inconclusive: -0.0256% [signal inhibitor] | –
54 | CCCCc1ccc(C(=O)N/C(=C\c2ccc(C)cc2)C(=O)NC2CCCCC2)cc1 | inconclusive: 3.26% [signal inhibitor] | –
55 | Cc1ccc(Cl)cc1N1CCN(C(=O)c2ccc(C)c(-n3c(C)nc4cccnc43)c2)CC1 | inconclusive: 0.388% [signal inhibitor] | –
56 | CCc1nc2ccc(C(=O)N3CCN(c4ccc(Cl)cc4)CC3)cc2nc1CC | inconclusive: 0.997% [signal inhibitor] | –
57 | COc1ccc2c(C)c(CCC(=O)NCCc3ccc(Cl)cc3)c(=O)oc2c1 | inconclusive: 2.31% [signal inhibitor] | –
58 | CCc1nc(SCC(=O)NCc2ccco2)c2c3c(sc2n1)CCCC3 | inactive: -0.891% | –
59 | CC1(C(=O)Nc2nccs2)Cc2ccccc2C(=O)O1 (stereo not given) | inconclusive: -2.86% [signal inhibitor] | –
60 | Clc1ccccc1-c1ccc2ncnc(N3CCNCC3)c2c1 | inactive: -0.734% [at 11.4 µM, scaled: untreated 0%, proteasome inhibitor 100%] | –
61 | COCCCNC(=O)CCc1c(C)nc2cc(-c3ccc(Cl)cc3)nn2c1C | – | inconclusive: 0.316 µM [signal inhibitor]
62 | O=C(c1cccs1)N1CCCc2cc(NS(=O)(=O)c3ccc(F)cc3)ccc21 | inconclusive: 0.883% [signal inhibitor] | –
63 | CC(C)Cn1c(/C=C/c2ccc(F)cc2)nc2ccccc21 | inconclusive: 5.15% [signal inhibitor] | –
64 | O=C(c1ccc2c(=O)n(CCc3ccccc3)c(=O)[nH]c2c1)N1CCN(c2ccc(Cl)cc2)CC1 | inconclusive: 11.2% [signal inhibitor] | –
65 | CCn1c(C)c(C)c2cc(C(=O)NCCc3ccc(C)cc3)ccc21 | inconclusive: 0.953% [signal inhibitor] | –
66 | Cc1nn2c(-c3cccc(NC(=O)c4ccc(Cl)cc4)c3)nnc2c2ccccc12 | – | inconclusive: 31.6 µM [signal activator, single point]
67 | O=C(NCCOc1ccc(Cl)cc1)C1CC(=O)N(c2ccc(F)cc2)C1 (stereo not given) | inconclusive: 2.27% [signal inhibitor] | –
68 | Cc1cccc(N2CCN(C(=O)C3CCN(c4nnc(-n5cccc5)s4)CC3)CC2C)c1 (stereo not given) | inconclusive: -8.3% [signal inhibitor] | –
69 | CCS(=O)(=O)N1CCc2cc(C(=O)Nc3cc(Cl)ccc3C)ccc21 | inconclusive: 2.67% [signal inhibitor] | –
70 | COc1ccccc1N1CCN(C/C=C/c2ccc(N(C)C)cc2)CC1 | inactive: -0.0724% | –

From PubChem BioAssay AID445 (National Center for Advancing Translational Sciences (NCATS), 2006)
